Experimental data from publication doi:10.1101/2025.07.07.663466 (bioRxiv, 2025).

Target: the molecule itself
Assay: native gel or EMSA

B1: recombinant E. coli GroEL (natural protein)
chain: not shown
For B1, the “stoichiometry N” value was 14.
